Reference: article PMC4336329 (PLoS ONE, 2015)
Among all 310,000 compounds or so, about 14,000 (4.5%) showed an effect of 50% or more. The effect is printed as a negative number. The list shows a part of the results.

These compounds were tested against human ether-à-go-go-related gene (hERG) potassium channel (human, UniProt Q12809) (assay: primary screen, population patch clamp on CHO cells stably expressing hERG).
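Further: peak tail current of the secondary pulse compared with the same well before compound.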

Sequence of human ether-à-go-go-related gene (hERG) potassium channel (Q12809 whole entry, looked up): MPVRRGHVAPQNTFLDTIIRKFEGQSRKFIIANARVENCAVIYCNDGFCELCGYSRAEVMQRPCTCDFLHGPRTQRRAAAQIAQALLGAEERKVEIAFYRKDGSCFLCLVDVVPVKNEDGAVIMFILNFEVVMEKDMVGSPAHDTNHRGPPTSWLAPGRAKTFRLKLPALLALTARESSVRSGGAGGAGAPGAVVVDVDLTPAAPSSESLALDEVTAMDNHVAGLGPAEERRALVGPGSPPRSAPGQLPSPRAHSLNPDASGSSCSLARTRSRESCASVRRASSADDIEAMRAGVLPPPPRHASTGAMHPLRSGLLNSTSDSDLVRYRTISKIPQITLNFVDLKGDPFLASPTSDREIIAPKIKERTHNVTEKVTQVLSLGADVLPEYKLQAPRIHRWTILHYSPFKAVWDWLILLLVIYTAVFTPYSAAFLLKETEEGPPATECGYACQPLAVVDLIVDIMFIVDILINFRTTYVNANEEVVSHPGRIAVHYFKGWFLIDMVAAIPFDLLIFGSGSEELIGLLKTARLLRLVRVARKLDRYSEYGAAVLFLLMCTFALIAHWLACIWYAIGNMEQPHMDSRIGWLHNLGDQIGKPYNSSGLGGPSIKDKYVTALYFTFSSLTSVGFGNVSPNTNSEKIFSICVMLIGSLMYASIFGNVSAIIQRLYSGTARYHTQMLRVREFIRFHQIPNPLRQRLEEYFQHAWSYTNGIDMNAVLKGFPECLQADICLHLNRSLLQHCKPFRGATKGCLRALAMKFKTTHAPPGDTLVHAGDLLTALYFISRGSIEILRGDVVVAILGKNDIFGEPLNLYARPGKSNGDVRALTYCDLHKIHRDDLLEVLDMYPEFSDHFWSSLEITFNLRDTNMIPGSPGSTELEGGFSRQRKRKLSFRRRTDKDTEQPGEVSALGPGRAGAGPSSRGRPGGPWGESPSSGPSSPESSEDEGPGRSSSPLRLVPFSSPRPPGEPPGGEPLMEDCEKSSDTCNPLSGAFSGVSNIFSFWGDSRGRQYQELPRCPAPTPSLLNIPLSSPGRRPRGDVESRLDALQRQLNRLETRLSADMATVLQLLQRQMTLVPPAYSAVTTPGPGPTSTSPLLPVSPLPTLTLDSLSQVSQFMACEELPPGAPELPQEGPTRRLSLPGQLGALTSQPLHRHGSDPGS

| SMILES | hERG current change (%, negative = inhibition) at 10uM [%] |
| --- | --- |
| O=C(COc1ccc(Cl)cc1)NCc1nnc(SCC(=O)N2CCCCC2)o1 | -16.3 |
| Cc1nc2c(-c3ccccc3)c(C)nn2c(C)c1CC(=O)O | 5.02 |
| Cc1cccc2cc(CN(Cc3ccco3)C(=O)c3ccco3)c(=O)[nH]c12 | -1.66 |
| Cc1csc(NC(C)c2nc3cc(Cl)c(N4CCCCC4)cc3n2CCOCCO)n1 (centres unmarked) | -35.2 |
| COc1ccc(C(=O)C2CCCN(C(=O)c3cc4nc(C)cc(C)n4n3)C2)cc1F (centres unmarked) | -8.72 |
| COc1ccc(S(=O)(=O)NC2(C(F)(F)F)N=C(c3ccccc3)NC2=O)cc1 (centres unmarked) | 31.5 |
| CC(C)COC(=O)C(N)C(C(=O)OCC(C)C)c1ccccc1.Cl (centres unmarked) | -4.15 |
| CCN(CC)S(=O)(=O)c1ccc(Cl)c(C(=O)NC(C)C(c2cccs2)N2CCCC2)c1 (centres unmarked) | -0.0909 |
| CC(C)(C#CC(O)(c1ccccc1)c1ccccc1)N1CCCC1.Cl | -47.9 |
| CC1CC(=O)N(c2ccc(C(C)C)cc2)C(=O)C1 | 9.54 |
| O=C(COC(=O)c1cccnc1Cl)Nc1cc(S(=O)(=O)N2CCCCC2)ccc1Cl | -18.9 |
| CC(C)NC(=O)c1cc2c(-c3ccc(Cl)cc3)nn(C)c2s1 | 4.67 |
| COc1cccc(-c2ncc3ccccc3c2COC(=O)CCC(=O)O)c1 | -2.62 |
| COc1cccc(CC(=O)Nc2sc3c(c2C(N)=O)CCCC3)c1 | 12.4 |
| CN(C(=O)CSc1nnc(C2CC2)n1-c1ccccc1)C1CCS(=O)(=O)C1 (centres unmarked) | 3.43 |
| O=C(NCc1ccccc1Cl)c1cc2ccccc2oc1=O | 17.4 |
| CCOc1cc(S(=O)(=O)N2CCC(c3nc4ccccc4s3)CC2)c(OCC)cc1S(=O)(=O)N1CCCCC1 | 3.29 |
| C=CCn1c(-c2ccco2)n[nH]c1=S | 13.6 |
| COc1ccc(COC(=O)NC(C(=O)O)c2ccccc2)cc1 (centres unmarked) | 2.6 |
| Cc1ccc(S(=O)(=O)NCCCNc2ccc([N+](=O)[O-])cc2)cc1 | -65.2 |
| Cc1cccc(C)c1NC(=O)Nc1ccc2c(c1)OCO2 | 3.47 |
| CC(Sc1ccccc1)C(=O)NNC(=O)c1csc(N2CCOCC2)n1 (centres unmarked) | 0.437 |

| SMILES | hERG current change (%, negative = inhibition) at 10uM [%] |
| --- | --- |
| COc1cccc(NC(=O)C(C)SCc2ccccc2)c1 (centres unmarked) | -7.6 |
| COC(=O)C1=C(c2ccc(F)cc2F)C[C@@H]2CC[C@H]1N2C(=O)NCc1ccc(F)cc1 | -46.4 |
| O=C(c1ccccc1)n1ccc(-c2cnc(-c3ccccc3)s2)n1 | 16 |
| CC(OC(=O)CCN=C1NS(=O)(=O)c2ccccc21)C(=O)NC1CCCCC1C (centres unmarked) | -9.25 |
| CC(C)[C@H](NC(=O)c1ccco1)C(=O)OCC(=O)Nc1ccc(Cl)c(S(=O)(=O)N(C)C)c1 | -27.8 |
| COc1ccc2nc(NC(=O)c3ccc(F)cc3)sc2c1 | 18.3 |
| CCCCn1c(SCC(=O)N2CCC(C)CC2)nc2ccsc2c1=O | -70.7 |
| COc1ccc(C(=O)NCCNc2nc3ccc(C)cc3cc2C#N)cc1OC | -6.08 |
| Cc1ccc(N(CC(=O)Nc2ccccc2-c2ccccc2)S(=O)(=O)c2ccccc2)cc1 | 13.2 |
| CCCNC(=O)C(Cc1ccccc1F)NC(=O)c1ccc(C#N)cc1 (centres unmarked) | -11.8 |
| CCCNC(=O)NCc1ccc(N2CCCC2=O)cc1 | 8.43 |
| Cc1ccc(/C=N/NC(=O)CC(=O)NCc2cccnc2)cc1 | 5.03 |
| C=C(Br)Cn1cnc2ccccc21 | 1.96 |
| COc1ccc2cc(CN(Cc3cccnc3)S(=O)(=O)c3ccccc3)c(=O)[nH]c2c1 | -31.9 |
| Cc1c(NC(=O)C(C)OC(=O)C23CC4CC(CC(Br)(C4)C2)C3)c(=O)n(-c2ccccc2)n1C (centres unmarked) | -0.374 |
| COc1ccc(CN=Cc2c(C(=O)O)[nH]c3ccccc23)cc1 | 4.73 |
| COC(=O)C1=C[C@@H](C(=O)OC)[C@@H]2C3=C(C(=O)[C@@]2(C)NC(=O)c2ccccc2)[C@H](C)n2c(=O)n(C)c(=O)n2[C@@H]3C1 | 5.63 |
| CCCCNCc1cc(Br)c(OCC(=O)NCc2ccccc2)c(OC)c1.Cl | -39.4 |
| COc1nc(Nc2cccc(F)c2)nc(OC)n1 | -12.4 |
| COc1cc(SC)ccc1C(=O)NCc1ccccc1 | -1.62 |
| COc1ccc(S(=O)(=O)N2CCC(C(=O)NC3CCCCC3C)CC2)cc1 (centres unmarked) | 4.99 |
| COc1ccc(-c2cc(C(=O)NCc3ccccc3)no2)cc1OC | -9.12 |
